Reference: the antibiotic and cytotoxicity screens of Wong et al. (2023)
The other results are listed elsewhere or left out.

Legend:
HSkMC = human skeletal muscle cells; assay: cytotoxicity call (relative viability < 0.9); conditions: 10 µM
HepG2 = assay: cytotoxicity call (relative viability < 0.9); conditions: 10 µM
S. aureus RN4220 = assay: growth inhibition call (relative growth <= 0.2); conditions: 50 µM

Structure (SMILES) | cytotoxicity call (HSkMC) | cytotoxicity call (HepG2) | growth inhibition call (S. aureus RN4220)
Cc1ccc(S(=O)(=O)Nc2ccc3c(c2)CC(=O)N([C@H](C)CO)C[C@@H](C)[C@H](CN(C)C(=O)NC(C)C)O3)cc1 | inactive | inactive | inactive
C[C@H](CO)N1C[C@H](C)[C@@H](CN(C)CC2CCCCC2)Oc2c(NC(=O)CCCCCC(=O)Nc3ccccc3N)cccc2C1=O | inactive | inactive | inactive
COc1ccc([Si](C)(C)[C@H]2[C@H](CC(=O)N3CCC[C@H]3CO)O[C@@]3(C(=O)N(Cc4cccc(N5C(=O)c6cccc7cccc5c67)c4)c4ccccc43)[C@@H]2C)cc1 | inactive | inactive | inactive
C[C@@H]1CN([C@@H](C)CO)C(=O)Cc2cc(NC(=O)CCCCCC(=O)Nc3ccccc3N)ccc2O[C@H]1CN(C)S(C)(=O)=O | inactive | inactive | inactive
COC[C@H](O)CNNC(=O)OC(C)(C)C | inactive | inactive | inactive
Nc1nc(Cl)nc2c1ncn2[C@H]1C[C@@H](O)[C@@H](COP(=O)(O)OP(=O)(O)OP(=O)(O)O)O1 | inactive | inactive | inactive
O=c1oc2cc3occ(-c4ccccc4)c3cc2c2ccccc12 | inactive | inactive | inactive
C[C@H](CO)N1C[C@H](C)[C@@H](CN(C)S(=O)(=O)c2cccs2)Oc2ccc(NC(=O)CCC(F)(F)F)cc2CC1=O | inactive | inactive | inactive
COc1ccc(NC(=O)Nc2ccc3c(c2)C(=O)N([C@H](C)CO)C[C@H](C)[C@@H](CN(C)S(=O)(=O)c2cccs2)OCCCC[C@H](C)O3)cc1 | inactive | inactive | inactive
Cc1noc(C)c1NC(=O)Nc1ccc2c(c1)C(=O)N([C@@H](C)CO)C[C@H](C)[C@@H](CN(C)C(=O)Nc1cccc3ccccc13)OCCCC[C@@H](C)O2 | inactive | inactive | inactive
CC(=O)Nc1ccc(OC(C)=O)cc1 | inactive | inactive | inactive
O=C(C[C@@H]1C[C@@H]2c3cc(NS(=O)(=O)c4ccc(F)cc4)ccc3O[C@@H]2[C@H](CO)O1)N1CCOCC1 | inactive | inactive | inactive
COCC#Cc1cnc2c(c1)C(=O)N([C@H](C)CO)C[C@@H](C)[C@@H](CN(C)S(=O)(=O)c1ccccc1)O2 | inactive | inactive | inactive
CO[C@@H]1CN(C)C(=O)c2cc(NS(C)(=O)=O)ccc2OC[C@H](C)N(C(=O)c2ccc3c(c2)OCO3)C[C@H]1C | inactive | inactive | inactive
Cc1cccc(CN(C)C[C@@H]2Oc3ncc(-c4cc5ccccc5o4)cc3C(=O)N([C@H](C)CO)C[C@@H]2C)c1 | inactive | active | inactive
COc1ccc(NC(=O)Nc2ccc3c(c2)C(=O)N([C@H](C)CO)C[C@@H](C)[C@H](CN(C)S(=O)(=O)c2ccc(F)cc2)OCCCC[C@H](C)O3)cc1 | inactive | active | inactive
C[C@H](CO)N1C[C@H](C)[C@@H](CN(C)C(=O)Nc2ccc(C(F)(F)F)cc2)OCCCC[C@H](C)Oc2ccc(NC(=O)Nc3ccccc3)cc2C1=O | inactive | inactive | inactive
COC(=O)C(CC#Cc1ccc2c(c1)[C@]1(C(=O)N2)[C@H](c2ccc(O)cc2)N2[C@H](c3ccccc3)[C@H](c3ccccc3)OC(=O)[C@H]2[C@@H]1C(=O)N1CCc2cc(OC)c(OC)cc2C1)C(=O)OC | inactive | inactive | inactive
COc1ccc(NC(=O)Nc2ccc3c(c2)CC(=O)N([C@H](C)CO)C[C@H](C)[C@H](CN(C)C(=O)Nc2ccc(C(F)(F)F)cc2)O3)cc1 | inactive | inactive | inactive
CCCNC(=O)N1C[C@H](O)COC[C@H]2O[C@H](CC(=O)NCCCN3CCOCC3)CC[C@@H]21 | inactive | active | inactive
C[C@@H]1CN([C@H](C)CO)C(=O)Cc2cc(NC(=O)Nc3ccc4c(c3)OCO4)ccc2O[C@H]1CN(C)Cc1ccc(-c2ccccc2)cc1 | inactive | inactive | inactive
C[C@@H]1CCCCO[C@H](CN(C)S(C)(=O)=O)[C@@H](C)CN([C@H](C)CO)C(=O)c2cc(N(C)C)ccc2O1 | inactive | inactive | inactive
C[C@H]1CN([C@@H](C)CO)C(=O)c2cccc(NC(=O)Nc3cccc4ccccc34)c2O[C@H]1CN(C)Cc1ccc(C(=O)O)cc1 | inactive | inactive | inactive
CCOC(=O)C1=C(COCCN)NC(C)=C(C(=O)OC)C1c1ccccc1Cl.O=S(=O)(O)c1ccccc1 (stereo not given) | inactive | active | inactive
Cc1ccccc1S(=O)(=O)N1[C@@H]2Cn3c(cccc3=O)[C@H]1[C@@H](C(=O)N1CCOCC1)[C@@H]2CO | inactive | inactive | inactive
O=C1CCNC(=O)N1 | inactive | inactive | inactive
C[C@H]1CN([C@@H](C)CO)C(=O)Cc2cc(NC(=O)Nc3ccc(C(F)(F)F)cc3)ccc2O[C@H]1CN(C)Cc1ccc(C(F)(F)F)cc1 | active | active | inactive
C[C@@H]1CCCCO[C@@H](CN(C)C(=O)Nc2ccc(C(F)(F)F)cc2)[C@H](C)CN([C@H](C)CO)C(=O)c2cc(NC(=O)C3CCCCC3)ccc2O1 | inactive | inactive | inactive

Structure (SMILES) | cytotoxicity call (HSkMC) | cytotoxicity call (HepG2) | growth inhibition call (S. aureus RN4220)
CN1C(=O)c2cc(NC(=O)C3CCCC3)ccc2OC[C@@H]2O[C@H](CC(=O)NCCc3ccncc3)CC[C@@H]21 | inactive | inactive | inactive
Cl.NC(CO)C(=O)NNCc1ccc(O)c(O)c1O (stereo not given) | inactive | inactive | inactive
CS(=O)(=O)CCNCc1ccc(-c2ccc3ncnc(Nc4ccc(OCc5cccc(F)c5)c(Cl)c4)c3c2)o1 | active | active | inactive
COC(=O)c1ccc2c(c1)no[n+]2[O-] | inactive | inactive | inactive
CC(C)CC#Cc1ccc2c(c1)O[C@H](CN(C)C(=O)NC1CCCC1)[C@@H](C)CN([C@H](C)CO)S2(=O)=O | inactive | inactive | inactive
C[C@@H]1CN([C@H](C)CO)C(=O)c2cc(NC(=O)Nc3ccccc3)ccc2O[C@H]1CN(C)Cc1ccc(C(F)(F)F)cc1 | inactive | active | inactive
C[C@@H]1CCCCO[C@H](CN(C)S(=O)(=O)c2ccc(Cl)cc2)[C@@H](C)CN([C@@H](C)CO)C(=O)c2cc(NC(=O)Nc3cccc4ccccc34)ccc2O1 | inactive | inactive | inactive
Cc1sc2ncnc(N3CCC[C@@H](Cn4cc(C(C)(C)N)nn4)C3)c2c1C | inactive | inactive | inactive
C[C@H]1CN([C@@H](C)CO)S(=O)(=O)c2ccc(C#CCN(C)C)cc2O[C@@H]1CN(C)C | inactive | inactive | inactive
CN1C(=O)c2cc(NC(=O)c3cscn3)ccc2OC[C@H]2O[C@@H](CC(=O)N3CCOCC3)CC[C@H]21 | inactive | inactive | inactive
C[C@H](CO)N1C[C@H](C)[C@H](CN(C)Cc2ccc(C(F)(F)F)cc2)Oc2ccc(NC(=O)Nc3ccc(C(F)(F)F)cc3)cc2C1=O | active | active | inactive
Cc1ccc(S(=O)(=O)Nc2ccc3c(c2)CC(=O)N([C@H](C)CO)C[C@H](C)[C@H](CN(C)C(=O)Nc2ccc(C(F)(F)F)cc2)O3)cc1 | inactive | inactive | inactive
C[C@@H]1CN([C@H](C)CO)S(=O)(=O)c2ccc(C3=CCCCC3)cc2O[C@H]1CN(C)Cc1cncnc1 | inactive | inactive | inactive
C[C@@H]1CN([C@@H](C)CO)C(=O)Cc2cc(NC(=O)c3ccncc3)ccc2O[C@H]1CN(C)S(=O)(=O)c1cccs1 | inactive | inactive | inactive
C[C@H]1CCCCO[C@H](CN(C)C(=O)c2ccccc2)[C@@H](C)CN([C@@H](C)CO)C(=O)c2cc(NS(=O)(=O)c3cccs3)ccc2O1 | inactive | inactive | inactive
O=C(Cn1cc(CN2C(=O)COC[C@H]2c2ccccc2)nn1)N1CCC2(CC1)C(=O)NCN2c1ccccc1 | inactive | inactive | inactive
C[C@H](CO)N1C[C@H](C)[C@@H](CN(C)S(=O)(=O)c2ccc(F)cc2)OCCCC[C@H](C)Oc2ccc(NS(C)(=O)=O)cc2C1=O | inactive | inactive | inactive
COc1ccccc1NC(=O)N(C)C[C@H]1Oc2ncc(C#CC(C)C)cc2C(=O)N([C@H](C)CO)C[C@H]1C | inactive | inactive | inactive
CCC1OC(=O)C(C)C(OC2CC(C)(OC)C(O)C(C)O2)C(C)C(OC2OC(C)CC(N(C)C)C2O)C(C)(O)CC(C)C(=NOCOCCOC)C(C)C(O)C1(C)O (stereo not given) | inactive | inactive | active
COc1ccc(NC(=O)N(C)C[C@H]2OCCCC[C@H](C)Oc3ccc(NS(=O)(=O)c4ccc(C)cc4)cc3C(=O)N([C@H](C)CO)C[C@@H]2C)cc1 | inactive | inactive | inactive
CCOC(=O)CCCCCC(=O)Nc1ccc2c(c1)C(=O)N([C@@H](C)CO)C[C@@H](C)[C@H](CN(C)C(=O)Nc1ccccc1)OCCCC[C@H](C)O2 | inactive | inactive | inactive
O=C(O)CCN1C(=O)c2ccncc2C1=O | inactive | inactive | inactive
COc1ccc(C)cc1S(=O)(=O)NCCO | inactive | inactive | inactive
C[C@@H]1CN([C@H](C)CO)C(=O)c2cccc(NC(=O)Nc3cccc4ccccc34)c2O[C@@H]1CN(C)Cc1ccc(C(=O)Nc2ccccc2N)cc1 | inactive | inactive | inactive
NNc1ccc2nncn2n1 | inactive | inactive | inactive
C[C@H]1CN([C@@H](C)CO)C(=O)Cc2cc(NC(=O)Cc3cn(C)c4ccccc34)ccc2O[C@@H]1CN(C)Cc1ccc(Oc2ccccc2)cc1 | inactive | inactive | inactive
C[C@@H]1CCCCO[C@H](CN(C)C(=O)CCC(F)(F)F)[C@@H](C)CN([C@@H](C)CO)C(=O)c2cc(NC(=O)Nc3ccccc3)ccc2O1 | inactive | inactive | inactive
